Experimental data reported in a collection of fitness landscapes (doi:10.1016/j.celrep.2020.107928).
Whole data set: some 81,000 sequences, median “one-hybrid fitness for binding parS DNA” near -0.17, cut for the highest 2% near 0.51. The list shows a part of the results.

B1: Caulobacter ParB omega fusion; a variant is named by its letters at X, in order, B8GW30 (parent)
chain: MESVVVGEPGMSEGRRGLGRGLSALLGEVDAAPAQAPGEQLGGSREAPIEILQRNPDQPRRTFREEDLEDLSNSIREKGVLQPILVRPSPDTAGEYQIVAGERAWRAAQRAGLKTVPIMVRELDDLAVLEIGIIENVQRADLNVLEEALSYKVLMEKFERTQENIAQTIGKSXSHVANXMRLLXLPDEVQSYLVSGELTAXHARAIAAAADPVALAKQIIEGGLSVRETEALARKAPNLSAGKSKGGRPPRVKDTDTQALESDLSSVLGLDVSIDHRGSTGTLTITYATLEQLDDLCNRLTRGI

Variants of: B1
Experiment: one-hybrid fitness for binding parS DNA (scaled: cognate 1, non-cognate 0); higher = stronger binding
Settings: with parS DNA site
Outline: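 Caulobacter ParB libraries with four specificity codons randomised were screened by bacterial one-hybrid selection in the E. coli USO strain, using a HIS3 reporter whose site lies 19 bp from the promoter. Selection ran for 48 hours at 37°C on M9 lacking histidine, with 0.1 mM IPTG and 5 mM 3-AT. Plasmids were Illumina-sequenced before and after selection, three replicate libraries were pooled, and variants with under 10 reads were dropped. Fitness is the log change in each variant's read ratio to wild type, rescaled against the cognate and non-cognate sites.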

Row | Variant | one-hybrid fitness for binding parS DNA
1 | WDTL | ≤ 0.2
2 | MQEG | ≤ 0.2
3 | HHQS | ≤ 0.2
4 | ANPA | ≤ 0.2
5 | CRPR | ≤ 0.2
6 | KIWY | ≤ 0.2
7 | VTRD | ≤ 0.2
8 | QMNT | ≤ 0.2
9 | LESS | ≤ 0.2
10 | TRSM | ≤ 0.2
11 | PWVM | ≤ 0.2
12 | ARVV | ≤ 0.2
13 | YAGR | ≤ 0.2
14 | PHYT | ≤ 0.2
15 | AFIG | ≤ 0.2
16 | PTLY | ≤ 0.2
17 | INHT | ≤ 0.2
18 | DTPD | ≤ 0.2
19 | APMT | ≤ 0.2
20 | LTTF | ≤ 0.2
21 | KANS | ≤ 0.2
22 | WVSP | 0.215
23 | NRYR | ≤ 0.2
24 | DSLT | ≤ 0.2
25 | VYVI | ≤ 0.2
26 | CHVT | ≤ 0.2

Row | Variant | one-hybrid fitness for binding parS DNA
27 | LYHG | ≤ 0.2
28 | YGHL | ≤ 0.2
29 | RSFL | ≤ 0.2
30 | LPYA | ≤ 0.2
31 | EVKF | ≤ 0.2
32 | QHDI | ≤ 0.2
33 | KTHI | ≤ 0.2
34 | HTCL | ≤ 0.2
35 | QRYN | ≤ 0.2
36 | NVPG | ≤ 0.2
37 | TTWV | ≤ 0.2
38 | YNYC | ≤ 0.2
39 | KVFC | ≤ 0.2
40 | QTWA | ≤ 0.2
41 | HSHV | ≤ 0.2
42 | RWIA | 0.295
43 | RCMF | 0.265
44 | ALLI | ≤ 0.2
45 | QQND | ≤ 0.2
46 | SARP | ≤ 0.2
47 | TAYK | ≤ 0.2
48 | HANV | ≤ 0.2
49 | SAAF | ≤ 0.2
50 | EDAC | ≤ 0.2
51 | VVYI | ≤ 0.2
52 | TVFW | ≤ 0.2

Row | Variant | one-hybrid fitness for binding parS DNA
53 | LHVG | ≤ 0.2
54 | QPSY | ≤ 0.2
55 | KLGM | ≤ 0.2
56 | IVYG | ≤ 0.2
57 | LGAC | ≤ 0.2
58 | PIVC | ≤ 0.2
59 | LILG | ≤ 0.2
60 | LGKS | ≤ 0.2
61 | HAGG | ≤ 0.2
62 | GMQG | ≤ 0.2
63 | LSNM | ≤ 0.2
64 | DTTH | ≤ 0.2
65 | QQLT | ≤ 0.2
66 | YHTR | ≤ 0.2
67 | SMMM | ≤ 0.2
68 | ESSI | ≤ 0.2
69 | VLPV | ≤ 0.2
70 | CGVE | ≤ 0.2
71 | PCMG | ≤ 0.2
72 | TRPM | ≤ 0.2
73 | GVQA | ≤ 0.2
74 | YWQS | ≤ 0.2
75 | ALAG | ≤ 0.2
76 | DPLI | ≤ 0.2
77 | RTNK | ≤ 0.2
78 | QVKH | ≤ 0.2

Row | Variant | one-hybrid fitness for binding parS DNA
79 | RRPW | ≤ 0.2
80 | RIFH | 0.213
81 | VEAV | ≤ 0.2
82 | WWYR | ≤ 0.2
83 | VRMV | ≤ 0.2
84 | RYWY | 0.393
85 | MPTF | ≤ 0.2
86 | RHGI | ≤ 0.2
87 | YHQG | ≤ 0.2
88 | SATR | ≤ 0.2
89 | YSHK | ≤ 0.2
90 | RWLW | ≤ 0.2
91 | VRPT | ≤ 0.2
92 | CSIG | ≤ 0.2
93 | CKGT | ≤ 0.2
94 | QIRS | ≤ 0.2
95 | QNAM | ≤ 0.2
96 | GGWL | ≤ 0.2
97 | RMRF | 0.368
98 | GIFT | ≤ 0.2
99 | QTSV | ≤ 0.2
100 | YEVL | ≤ 0.2
101 | NVHG | ≤ 0.2
102 | CTAT | ≤ 0.2
103 | LAQI | ≤ 0.2
104 | AQVT | ≤ 0.2

Row | Variant | one-hybrid fitness for binding parS DNA
105 | THKC | ≤ 0.2
106 | RNDE | ≤ 0.2
107 | PMYV | ≤ 0.2
108 | SCAD | ≤ 0.2
109 | TRLQ | ≤ 0.2
110 | YPVC | ≤ 0.2
111 | NKII | ≤ 0.2
112 | YMKV | ≤ 0.2
113 | PLEN | ≤ 0.2
114 | QYLH | ≤ 0.2
115 | PLRN | ≤ 0.2
116 | WHGE | ≤ 0.2
117 | LVGT | ≤ 0.2
118 | NSYG | ≤ 0.2
119 | RLSA | 0.587
120 | FRWS | ≤ 0.2
121 | KDNT | ≤ 0.2
122 | SNCY | ≤ 0.2
123 | WQTC | ≤ 0.2
124 | NTAF | ≤ 0.2
125 | RNHQ | ≤ 0.2
126 | TISK | ≤ 0.2
127 | RYEV | ≤ 0.2
128 | MPPP | ≤ 0.2
129 | PYGT | ≤ 0.2
130 | QPTL | ≤ 0.2

Row | Variant | one-hybrid fitness for binding parS DNA
131 | MHWT | ≤ 0.2
132 | GWWS | ≤ 0.2
133 | EWRV | ≤ 0.2
134 | NYNR | ≤ 0.2
135 | PNAK | ≤ 0.2
136 | VFVS | ≤ 0.2
137 | PNTQ | ≤ 0.2
138 | SRHV | ≤ 0.2
139 | GDNL | ≤ 0.2
140 | HLVG | ≤ 0.2
141 | FMYR | ≤ 0.2
142 | TKSH | ≤ 0.2
143 | SDPV | ≤ 0.2
144 | LTTL | ≤ 0.2
145 | IALV | ≤ 0.2
146 | YQWR | ≤ 0.2
147 | HYMR | ≤ 0.2
148 | MRDA | ≤ 0.2
149 | LKNC | ≤ 0.2
150 | IGFC | ≤ 0.2
151 | QWMI | ≤ 0.2
152 | NGTL | ≤ 0.2
153 | DPPC | ≤ 0.2
